From patent publication US11407771B2 (priority 2018, dated 2022) come the findings set out here.

SMILES strings stand for the structures.

For series [1], the system named is MUC5AC mucin formation in IL-13-stimulated pTEC. Description: cells. To be noted: Sus scrofa, 504 h, read-out: MUC5AC IC50.
The test system of series [2] is MUC5AC mucin formation in IL-13-stimulated hTEC. Description: cells. As to conditions: Homo sapiens, 504 h, read-out: MUC5AC IC50.
In series [3] the test system is MDA-MB-231. Description: cells. As to conditions: Homo sapiens, MDA-MB-231, 72 h, read-out: MDA-MB-231 IC50.
A further series deals with MCF-7. Description: cells. To be noted: Homo sapiens, MCF7, 72 h, read-out: MCF-7 IC50.
Series [4] deals with MDA-MB-231.
In series [5] the test system is MUC5AC mucin formation in IL-13-stimulated pTEC. To be noted: pig.
The test system of series [6] is MUC5AC mucin formation in IL-13-stimulated hTEC. As to conditions: human.

As usually defined, the IC50 is the concentration that inhibits the measured activity by half. Turning to `CC(=O)Nc1cc(CCc2cnc(NC(=O)Nc3cc(C4CC4)ccc3F)s2)ccn1` [Compound 398, N-[4-(2-{2-[3-(5-Cyclopropyl-2-fluoro-phenyl)-ureido]-thiazol-5-yl}-ethyl)-pyridin-2-yl]-acetamide], the IC50 in series [1] is 0.281 nM; in series [2], 0.004 nM.

For the compound `CC(=O)Nc1cc(Oc2ccc(NC(=O)Nc3cc(C(C)(C)C)no3)c(F)c2)ccn1` [Compound 395, N-(4-{4-[3-(3-tert-Butyl-isoxazol-5-yl)-ureido]-3-fluoro-phenoxy}-pyridin-2-yl)-acetamide], the results for the IC50 in the series with MDA-MB-231 [3] and in the series on MCF-7 were 76 nM and 88 nM, respectively.

Consider `Cc1ccc(-n2nc(C(C)(C)C)cc2NC(=O)Nc2ncc(CCc3ccnc(NC(=O)C4CC4)c3)s2)cc1` [Compound 331, Cyclopropanecarboxylic acid [4-(2-{2-[3-(5-tert-butyl-2-p-tolyl-2H-pyrazol-3-yl)-ureido]-thiazol-5-yl}ethyl)-pyridin-2-yl]-amide], for which the IC50 in the series on MDA-MB-231 [3] was found to be 79 nM; with MCF-7, 87 nM.

On to `CC(=O)Nc1cc(Oc2ccc(NC(=O)Nc3cc(C(C)(C)C)nn3C)c(F)c2)ccn1` [Compound 391, N-(4-{4-[3-(5-tert-Butyl-2-methyl-2H-pyrazol-3-yl)-ureido]-3-fluoro-phenoxy}-pyridin-2-yl)-acetamide], for which the IC50 turned out to be 78 nM in the series on MDA-MB-231 [3] and 99 nM with MCF-7.

Consider `Cc1ccc(-n2nc(C(C)(C)C)cc2NC(=O)Nc2ccc(OCCN3CCOCC3)c3ccccc23)cc1` [Compound 43, BIRB-796, reference compound], for which the IC50 with MDA-MB-231 [3] and with MCF-7 was above 1000 nM in each case. In the series on MDA-MB-231 [4], the “breast cancer cell proliferation” value is recorded as “no decrease”.

Take `CCOC(=O)Nc1cc(CCc2cnc(NC(=O)Nc3cc(C(C)(C)C)n[nH]3)s2)ccn1` [Compound 354, [4-(2-{2-[3-(5-tert-Butyl-2H-pyrazol-3-yl)-ureido]-thiazol-5-yl}-ethyl)-pyridin-2-yl]-carbamic acid ethyl ester]: the IC50 in series [1] came out at 0.289 nM; in series [2], 0.008 nM.

For `CC(=O)Nc1cc(CCc2cnc(NC(=O)Nc3cc([Si](C)(C)C)ccc3F)s2)ccn1` [Compound 400, N-[4-(2-{2-[3-(2-Fluoro-5-trimethylsilanyl-phenyl)-ureido]-thiazol-5-yl}-ethyl)-pyridin-2-yl]-acetamide], the IC50 in series [1] came out at 0.01 nM; in series [2] it was 0.003 nM.

Take `CC(=O)Nc1cc(Oc2ccc(NC(=O)Nc3cc(C4CC4)ccc3F)c(F)c2)ccn1` [Compound 397, N-(4-{4-[3-(5-Cyclopropyl-2-fluoro-pheny)-ureido]-3-fluoro-phenoxy}-pyridin-2-yl)-actamde]: the IC50 was found to be 1 nM in series [1] and 0.002 nM in series [2].

For the compound `CC(=O)Nc1cc(Oc2ccc(NC(=O)Nc3cc(C(C)(C)C)on3)c(F)c2)ccn1` [Compound 394, N-(4-{4-[3-(5-tert-Butyl-isoxazol-3-yl)-ureido]-3-fluoro-phenoxy}-pyridin-2-yl)-acetamide], the IC50 was found to be 121 nM with MDA-MB-231 [3] and 65 nM in the series with MCF-7.

Take `CC(=O)Nc1cc(Oc2ccc(NC(=O)Nc3cc([Si](C)(C)C)ccc3F)c(F)c2)ccn1` [Compound 399, N-(4-{3-Fluoro-4-[3-(2-fluoro-5-trimethylsilanyl-phenyl)-ureido]-phenoxy}-pyridin-2-yl)-acetamide]: the half-inhibitory concentration (IC50) in series [1] is 0.263 nM; in series [2], 0.004 nM.

Consider `Cc1ccc(-n2nc(C(C)(C)C)cc2NC(=O)Nc2ncc(CCc3ccnc(NC(=O)C4CCC4)c3)s2)cc1` [Compound 332, Cyclobutanecarboxylic acid [4-(2-{2-[3-(5-tert-butyl-2-p-tolyl-2H-pyrazol-3-yl)-ureido]-thiazol-5-yl}-ethyl)-pyridin-2-yl]-amide], for which the IC50 in the series on MDA-MB-231 [3] amounted to 92 nM; in the series on MCF-7, 65 nM.

With `O=c1ncn2nc(Sc3ccc(F)cc3F)ccc2c1-c1c(Cl)cccc1Cl` [Compound 401, VX-745, reference compound], the 50% inhibitory concentration (IC50) in series [1] and in series [2] was above 1000 nM in each case. The “Cell Therapeutic Ratio” value in series [5] and in series [6] was above 1 each time.
